Experimental data as given in PubChem BioAssay AID485294 (National Center for Advancing Translational Sciences (NCATS), 2010).
In all, about 370,000 compounds went through this assay and about 150 (0.041%) were called active. Inconclusive means that the source gave no clear call. Such entries were picked first, then a sample of the others. Calls follow the shape of the dose curve; as a rule, active = well fitted inhibition curve with a large enough effect; inconclusive = small, poorly fitted or top-dose-only effect; inactive = flat fitted curve, though single readings scatter. Potencies of inconclusive entries are left out as doubtful fits.
Also: nearly all actives have a fitted effect of over 25% in size.
Potency is read from the fitted curve at half-maximal effect; tags tell the direction and shape of the fitted curve.

These molecules were tested against Beta-lactamase (Escherichia coli (strain K12)) (UniProt P00811) (assay: qHTS Inhibitors of AmpC Beta-Lactamase (assay with detergent)). Details: AmpC hydrolysis of nitrocefin, absorbance 480 nm, 0.01% Triton; series mostly up to 114 µM.
UniProt P00811, sequence (P00811 whole entry, looked up): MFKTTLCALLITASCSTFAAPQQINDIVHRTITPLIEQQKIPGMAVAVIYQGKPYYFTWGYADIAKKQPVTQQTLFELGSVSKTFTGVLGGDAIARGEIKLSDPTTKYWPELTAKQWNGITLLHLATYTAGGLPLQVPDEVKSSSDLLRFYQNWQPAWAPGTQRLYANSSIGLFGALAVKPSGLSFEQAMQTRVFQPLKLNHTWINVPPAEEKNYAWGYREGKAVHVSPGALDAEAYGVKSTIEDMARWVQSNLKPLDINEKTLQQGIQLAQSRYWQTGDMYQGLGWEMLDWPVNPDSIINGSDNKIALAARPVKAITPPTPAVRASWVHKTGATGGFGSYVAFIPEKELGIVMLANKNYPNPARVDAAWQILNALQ
In short: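 20 mM phosphate pH 7.0 + 0.01% (detergent screen) or 0.0001% Triton X-100; 5.3 nM AmpC reagent; cpd preinc 15 min RT; nitrocefin (800 uM stock) to start; A480 q20 s × 4 min; Activity was normalised to no-enzyme and no-compound control wells.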
For `CN(C)Cc1ccccc1Cc1ccccc1`, the Potency was inconclusive [inhibitor, partial curve, poor fit]. `CN(CC(=O)NCCc1ccccc1)S(=O)(=O)c1ccc(Br)s1` was tested, and the Potency was inconclusive [inhibitor, partial curve]. In the case of `Cc1ccc(/C=N/Nc2ccc3c(C(F)(F)F)cc(C(F)(F)F)nc3n2)cc1`, the Potency is reported as inconclusive [inhibitor, partial curve]. `Cc1ccc(C(=O)Nc2ccccc2C(=O)NCC2CCCO2)cc1` (stereo not drawn) was tested, and the Potency was inconclusive [inhibitor, full curve, poor fit]. With `COc1ccc(/C=C/C(O)=C2/C(=O)NC3(C)CC2c2ccccc2O3)c(OC)c1OC` (stereo not drawn) the Potency was inconclusive [inhibitor, single point]. With `Cc1ccccc1CSc1ccc2nnc(-c3ccccn3)n2n1` the Potency was inconclusive [inhibitor, full curve, poor fit]. For `Cn1ncc(Cl)c1C(=O)Nc1nc2ccc(Cl)cc2s1`, the Potency was inconclusive [inhibitor, full curve]. With `CCOC(=O)c1nn(-c2ccc3c(c2)OCCO3)cc1O` the Potency was inconclusive [inhibitor, full curve, poor fit]. With `Cc1ccc(N(CC2=NCCN2)c2cccc(O)c2)cc1` the Potency was inconclusive [inhibitor, full curve]. For `Cn1c(SCC(=O)N2CCOCC2)nnc1-c1ccc(Cl)cc1Cl`, the Potency was inconclusive [inhibitor, full curve]. In the case of `CCc1nc(SCC(=O)N2CCOCC2)c2c(=O)n(C)c(=O)n(C)c2n1`, the Potency is reported as inconclusive [inhibitor, full curve]. In the case of `O=c1c2c([N+](=O)[O-])cc([N+](=O)[O-])cc2sn1-c1ccc(Br)cc1`, the Potency is reported as inconclusive [inhibitor, partial curve, poor fit]. In the case of `Cc1ccc(OCC(=O)Nc2ccc(CN3CCOCC3)cc2)cc1C`, the Potency is reported as inconclusive [inhibitor, partial curve]. For `COc1ccc(C2CC(=O)N(CC(=O)NCC3CCCO3)c3ccccc3S2)cc1` (stereo not drawn), the Potency was “inactive”. With `O=C(CO/N=C/c1ccc(OC(F)F)cc1)NCc1ccc(F)cc1` the Potency was inconclusive [inhibitor, partial curve, poor fit]. In the case of `COc1ccc(OC)c(NC(=O)C2=C(C)C(=O)OC23CCN(C(C)C)CC3)c1`, the Potency is reported as “inactive”. In the case of `COc1cc2oc3ccccc3c(=O)c2cc1OC`, the Potency is reported as inconclusive [inhibitor, partial curve]. For `CCC(C)[C@H](NC(=O)N1CC(=O)Nc2ccccc21)C(=O)N[C@H](Cc1c[nH]c2ccccc12)C(=O)O` (stereo partly drawn), the Potency was inconclusive [inhibitor, single point]. `CCCCC(CC)CNC(=O)CCCCCn1c(=O)[nH]c2ccsc2c1=O` (stereo not drawn) was tested, and the Potency was “inactive”. `O=C(c1ccc2c(c1)N(Cc1ccc(Cl)cc1)C(=O)c1ccccc1S2(=O)=O)N1CCOCC1` was tested, and the Potency was inconclusive [inhibitor, partial curve]. For `COc1cc2c3c(c1OC)-c1cc(O)ccc1CC3NCC2` (stereo not drawn), the Potency was inconclusive [inhibitor, full curve, poor fit]. `C[C@@]12CCC=C[C@H]1[C@H](c1ccoc1)N(Cc1ccccc1)C2=O` was tested, and the Potency was “inactive”. For `Cc1ccc(S(=O)(=O)N2CCCCC2)cc1NC(=O)c1ccc2c(c1)OCO2`, the Potency was “inactive”. For `O=C(N/N=C/c1ccc(F)cc1)c1cc[n+]([O-])cc1`, the Potency was “inactive”. For `O=C(CN1C(=O)c2ccccc2S1(=O)=O)c1ccccc1`, the Potency was inconclusive [inhibitor, full curve, poor fit]. For `Cc1ccc(NC(=O)OCC(F)(F)C(F)F)cc1NC(=O)OCC(F)(F)C(F)F`, the Potency was inconclusive [inhibitor, full curve, poor fit]. In the case of `Cc1cccn2cc(-c3ccc4c(c3)NC(=O)CO4)nc12`, the Potency is reported as “inactive”. For `Cc1cc(C)c(NC(=O)C(=O)NCCc2csc(-c3ccc(F)cc3)n2)c(C)c1`, the Potency was “inactive”. With `CCN(CC(=O)Nc1ccc2c(c1)OCCO2)C(=O)COc1cc(C)ccc1Cl` the Potency was “inactive”. With `O=C(Nc1nc2cc3c(cc2s1)OCCO3)C1CCCCC1` the Potency was inconclusive [inhibitor, full curve, poor fit]. With `CC(=O)c1cccc(NC(=O)c2cc3ccccn3n2)c1` the Potency was inconclusive [inhibitor, partial curve]. `O=C(c1noc2c1CCc1ccccc1-2)N1CCCc2ccccc21` was tested, and the Potency was inconclusive [inhibitor, single point]. In the case of `CCCc1[nH]nc2c1C(c1cccc(OC)c1)C(C#N)=C(N)O2` (stereo not drawn), the Potency is reported as “inactive”. For `COc1ccc(O)c(-c2cc(-c3ccccc3Cl)[nH]n2)c1`, the Potency was inconclusive [inhibitor, full curve, poor fit]. `CSc1ccc(CCNC(=O)c2csc3c2CCCCC3)cc1` was tested, and the Potency was inconclusive [inhibitor, single point]. `O=C(Oc1ccc2cc(Br)ccc2c1)N1CCCCCC1` was tested, and the Potency was “inactive”. `CCCc1cc(=O)[nH]c(SCC(=O)N2CCN(S(=O)(=O)c3ccc(C)cc3)C2)n1` was tested, and the Potency was inconclusive [inhibitor, full curve]. `O=C1c2cccc(OCC(=O)N3N=C(c4cccs4)CC3c3ccc(F)cc3)c2CCN1Cc1cccnc1` (stereo not drawn) was tested, and the Potency was inconclusive [inhibitor, full curve]. For `CCOC(=O)N1CCC(N2Cc3cccc(C(=O)NCc4ccc(C)cc4)c3C2=O)CC1`, the Potency was inconclusive [inhibitor, full curve]. In the case of `COc1ccc(CCNC(=O)c2ccc(CNS(=O)(=O)c3cccc(Cl)c3)cc2)cc1OC`, the Potency is reported as inconclusive [inhibitor, single point]. With `CCc1ccc(CN2CCN(Cc3ccc(SC)cc3)CC2)cc1` the Potency was “inactive”. For `COc1cccc(C2/C(=C(\O)c3c(C)nc4c(C)cccn34)C(=O)C(=O)N2CCCN(C)C)c1OC` (stereo not drawn), the Potency was inconclusive [inhibitor, full curve, poor fit]. For `CCCn1c(=N)n(CCOc2ccc(OC)cc2)c2ccccc21`, the Potency was inconclusive [inhibitor, single point].
